Source: PubChem BioAssay AID1347417 (National Center for Advancing Translational Sciences (NCATS), 2020)
In all, about 120,000 compounds went through this assay and about 5,300 (4.4%) were called active. Inconclusive results, whose numbers are uncertain, are shown with a selection of clear calls. Calls come from the whole dose curve; as a rule, active = well fitted inhibition curve with a large enough effect; inconclusive = small, poorly fitted or top-dose-only effect; inactive = no such curve, though single readings can be large or run the other way. Potencies of inconclusive entries are doubtful fits and often do not repeat.

Test: qHTS Primary assay for Inhibitors of Plasmodium falciparum Dd2 growth in vitro; note: nearly all actives have a fitted effect of over 65% in size;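 for activity, negative = inhibition: plate controls were DMSO vehicle for no effect and reference drug for full effect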
Settings: P. falciparum Dd2 growth, SYBR Green, 72 h; activity, negative = inhibition: at 28.9 µM (top of the series) unless noted; series mostly up to 28.9 µM
How it was run: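 Infected erythrocytes (Dd2, 0.3% parasitemia, 2.5% hematocrit final) are added to compound in RPMI-1640/Albumax II medium, grown 72 h at 37C in low oxygen, then lysed with saponin/Triton-X containing SYBR Green and read by fluorescence.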
Potency is the fitted concentration of half-maximal effect; tags give direction and shape of the fitted curve.

Row | Structure (SMILES) | Potency | activity, negative = inhibition
1 | Cc1cc(C)n(CCC(=O)N2c3ccccc3CC2c2noc(C3CCOCC3)n2)n1 (configuration not stated) | inconclusive: 17.8 µM [inhibitor, single point] | –
2 | COc1ccc(C(=O)N[C@H]2C[C@@H](c3nc(-c4ccncc4)no3)N(C)C2)cc1 | inconclusive: 12.6 µM [inhibitor, single point] | –
3 | Cc1ccc(CN(C(=O)c2ccco2)c2ccc(CC(=O)NCc3ccccc3)cc2)cc1 | inactive | –
4 | CCS(=O)(=O)Nc1ccc(C)n(CC(=O)NCc2cc(F)ccc2F)c1=O | inconclusive: 3.98 µM [inhibitor, single point] | –
5 | CCC(C)NC(=O)C(NC(=O)c1ccccc1Cl)C1CCN(C(=O)c2cccc(OC)c2)CC1 (configuration not stated) | inactive | –
6 | CN(Cc1cccnc1)c1ccc2ncc(Nc3cc(F)cc(N4CCOCC4)c3)n2n1 | inconclusive: 3.98 µM [inhibitor, partial curve, poor fit] | –
7 | COC(=O)c1cnn(-c2ccc(C(=O)Nc3ccc(OC(F)(F)F)cc3)cc2)c1N | active: 1.58 µM | –
8 | CCc1ccc(NC(=O)CN2CCSc3ccc(S(=O)(=O)N4CCCC4)cc32)cc1 | inconclusive: 6.31 µM [inhibitor, partial curve, poor fit] | –
9 | O=C(O)C[C@@H]1CCN(S(=O)(=O)c2ccccc2)C[C@@H]1CCN(CCN1CCOCC1)c1ccccc1 | inconclusive: 12.6 µM [inhibitor, single point] | –
10 | CCn1cnnc1-c1nn(C)c2c1CN(C(=O)CCCC1C(=O)Nc3ccccc31)CC2 (configuration not stated) | inconclusive: 1 µM [inhibitor, partial curve, poor fit] | –
11 | O=C(CCc1ccccc1)N1CCN(C(=O)c2nnn3c2COC(c2ccccc2)C3)CC1 (configuration not stated) | inactive | –
12 | Cc1ccc(F)cc1NC(=O)c1ccc(Cn2nc(N3CCN(c4ccccc4)CC3)ccc2=O)o1 | active: 11.2 µM | –
13 | Cc1nnc(NC(=O)CSc2nnc3c(n2)[nH]c2ccccc23)s1 | inactive | –
14 | O=c1n(CC2CC2)nc2n1CCNCC2 | inactive | –
15 | CC(C)n1ccc2c(NC(=O)C[C@H]3NC(=O)c4ccccc4NC3=O)cccc21 | inconclusive: 14.1 µM [inhibitor, single point] | –
16 | Cc1cccc(N2CCN(CCCNC(=O)c3sc4ncccc4c3-n3cccc3)CC2C)c1 (configuration not stated) | inconclusive: 17.8 µM [inhibitor, single point] | –
17 | CCOc1ccc(NC(=O)Cn2cccc2-c2nc(-c3ccccc3)no2)cc1 | inconclusive: 1.12 µM [inhibitor, partial curve, poor fit] | –
18 | O=C(Cn1c(-c2cccs2)cc2cc(F)ccc21)NCCCN1CCN(c2ccccc2F)CC1 | active: 8.91 µM | –
19 | COc1ccc(C(=O)NC2CCN(c3cc(-c4ccccc4)[nH]n3)C2)cc1F (configuration not stated) | inconclusive: 7.08 µM [inhibitor, partial curve, poor fit] | –
20 | OCCC1CN(c2nc(-c3ccccc3)nc3c2CCC3)CCN1C1CCCC1 (configuration not stated) | active: 10 µM | –
21 | COc1ccc2[nH]c(C(=O)NCC(=O)N3CCCCCNC(=O)CC3c3ccccc3)cc2c1 (configuration not stated) | inconclusive: 2.51 µM [inhibitor, single point] | –

Row | Structure (SMILES) | Potency | activity, negative = inhibition
22 | Cc1ccc(NC(=O)CN2C(=O)CCn3nc(-c4cccn4C)cc32)c(Cl)c1 | inconclusive: 1.12 µM [inhibitor, single point] | –
23 | O=C(Nc1ccc([C@H]2OCC(=O)N(Cc3ccc(F)cc3)[C@@H]2CO)cc1)c1ccco1 | inactive | –
24 | CCC1(C(=O)Nc2ccc(OC)cc2)CCCCC(=O)N1 (configuration not stated) | inactive | –
25 | Cc1cccc(OCC(=O)N2CCC(c3n[nH]c(=O)n3Cc3ccc(F)cc3)CC2)c1 | active: 11.2 µM | –
26 | CC(C)CNC(=O)C1COC2(CCN(C(=O)c3ccccc3Cl)CC2)N1C(=O)c1ccccc1 (configuration not stated) | inactive | –
27 | Cc1cc(C)cc(Nc2nc3ccccc3n3cnnc23)c1 | inconclusive: 5.62 µM [inhibitor, partial curve, poor fit] | –
28 | COc1ccc(-c2cc(C(C)=O)c(C)n2CCC(=O)Nc2ccc(C)cc2Cl)cc1 | inconclusive: 12.6 µM [inhibitor, single point] | –
29 | N#Cc1ccc(C(=O)Nc2ccc3c(N4CCCCC4)ncnc3c2)cc1 | active: 8.91 µM | –
30 | OCC1(CCCc2ccccc2)CCN(Cc2cccc3c2OCO3)CC1 | inconclusive: 2.24 µM [inhibitor, full curve, poor fit] | –
31 | CCc1ccc(NC(=O)Cc2csc(COc3cccc(C)c3)n2)cc1 | inconclusive: 7.94 µM [inhibitor, partial curve] | –
32 | Cc1nc(C)c(C(=O)N2CC(Oc3ccc(-c4nc(-c5ccccc5)no4)cc3)C2)s1 | inconclusive: 3.98 µM [inhibitor, single point] | –
33 | O=S(=O)(c1ccc2[nH]c3c(c2c1)CCCC3)N1CCN(c2cccc(C(F)(F)F)c2)CC1 | inconclusive: 17.8 µM [inhibitor, single point] | –
34 | CN1C(C(=O)c2ccccc2)=C(NC(=O)c2ccccc2Br)c2ccccc2S1(=O)=O | inconclusive: 8.91 µM [inhibitor, single point] | –
35 | CNC(=O)N1CCC(C2CCN(S(=O)(=O)c3cc(F)ccc3C)C2)CC1 (configuration not stated) | inactive | –
36 | COc1cc(CNC2CCCCCCC2)ccc1OCC(O)CN1CCSCC1 (configuration not stated) | active: 8.91 µM | –
37 | CC(C)C1=NOC2(CCN(Cc3ccc(F)cc3)C2)C1 (configuration not stated) | – | inconclusive: -79.8% [inhibitor] [at 44.1 µM]
38 | CCC(=O)N1CCc2cc(Br)cc(S(=O)(=O)CCC(=O)N3CCN(c4ccc(OC)cc4)CC3)c21 | inconclusive: 17.8 µM [inhibitor, single point] | –
39 | CCOc1ccc2oc(=O)cc(CN3CCN(Cc4ccc(F)cc4)CC3)c2c1 | inconclusive: 15.8 µM [inhibitor, single point] | –
40 | CCC(C(=O)Nc1cc(OC)ccc1OC)n1c(=O)c(C(F)(F)F)nc2ccccc21 (configuration not stated) | inconclusive: 12.6 µM [inhibitor, single point] | –
41 | COc1ccc(C(=O)NCC(c2ccc(N(C)C)cc2)N2CCCC2)cc1 (configuration not stated) | inconclusive: 17.8 µM [inhibitor, single point] | –
42 | Cc1nc(C)c(C(=O)NCCn2c(C)cnc2-c2cccnc2)s1 | inactive | –

Row | Structure (SMILES) | Potency | activity, negative = inhibition
43 | CC(=O)c1ccc(N2CCN(c3nc4c(S(=O)(=O)c5ccc(C)c(C)c5)nnn4c4ccc(Cl)cc34)CC2)cc1 | inconclusive: 3.98 µM [inhibitor, single point] | –
44 | Cc1cc(C)cc(-n2ccnc2SCC(=O)Nc2ccc(C)cc2C)c1 | inconclusive: 12.6 µM [inhibitor, single point] | –
45 | COc1cccc(NC(=O)Cn2c(-c3ccccc3)nc(C)cc2=O)c1 | inconclusive: 3.98 µM [inhibitor, single point] | –
46 | O=C(Nc1nc2ccc(S(=O)(=O)N3CCCC3)cc2s1)c1ccc(F)cc1 | – | inconclusive: -93.8% [inhibitor] [at 5.79 µM]
47 | CC1CCCCN1CCCNC(=O)c1ccc2c(c1)sc1nc(-c3ccc(F)cc3)cn12 (configuration not stated) | active: 1.41 µM | –
48 | CCC(=O)N1CCCCCCNC(=O)[C@@H]2C[C@@H](C(=O)NCCc3c[nH]c4ccccc34)C[C@@H]21 | inconclusive: 5.01 µM [inhibitor, partial curve, poor fit] | –
49 | CCOc1ccc(NC(=O)[C@H]2O[C@@H]3OC(C)(C)O[C@@H]3[C@H]3OC(C)(C)O[C@H]32)cc1 | inconclusive: 2.82 µM [inhibitor, partial curve, poor fit] | –
50 | COc1ccc(CC(=O)N2CCC3(CC2)CN(C(=O)c2ccc(OC)cc2)CCO3)cc1 | inactive | –
51 | CCOc1ccccc1CNC(=O)c1cn(-c2ccc(OC)cc2)c(=O)c2ccccc12 | active: 8.91 µM | –
52 | CCn1c2c(c(=O)n1Cc1ccccc1)CCN(C(=O)COc1ccccc1)C2 | inconclusive: 11.2 µM [inhibitor, single point] | –
53 | COc1cccc(CNC(=O)CSc2n[nH]c(-c3ccccc3Cl)n2)c1OC | inconclusive: 0.0079 µM [inhibitor, full curve, poor fit] | –
54 | Cc1cccc(N2CC(c3nc4ccccc4n3CCC3CCCCC3)CC2=O)c1 (configuration not stated) | inconclusive: 8.91 µM [inhibitor, partial curve, poor fit] | –
55 | Cc1ccc(-c2nc(S(=O)(=O)c3ccc(C)cc3)c(SCC(=O)Nc3ccc(F)cc3)o2)cc1 | inconclusive: 17.8 µM [inhibitor, single point] | –
56 | COC(=O)c1ccccc1NC(=O)O[C@@H]1CO[C@H]2[C@@H]1OC[C@@H]2Nc1nccc(-c2ccc3c(c2)OCO3)n1 | inconclusive: 1.41 µM [inhibitor, full curve] | –
57 | O=C(Cc1c[nH]c2ccccc12)N1CCC(c2nc(CCOCC3CCCC3)no2)C1 (configuration not stated) | inconclusive: 3.16 µM [inhibitor, single point] | –
58 | COc1ccc(-c2nc3nc(C)cc(N4CCN(c5cccc(C(F)(F)F)c5)CC4)n3n2)cc1 | inconclusive: 3.98 µM [inhibitor, single point] | –
59 | COc1ccc(NC(=O)N2C[C@@H]3C[C@H](C2)c2ccc(NC(=O)Nc4ccccc4)c(=O)n2C3)cc1 | inconclusive: 7.08 µM [inhibitor, partial curve, poor fit] | –
60 | Cc1noc2c(NCCN(C)C)cc(-c3ccccn3)nc12 | inactive | –
61 | Cc1ccc(CN2CCCC(C(=O)N3CCN(c4ccccn4)CC3)CCNC(=O)CC2)s1 (configuration not stated) | inconclusive: 1.41 µM [inhibitor, single point] | –
62 | CCOC(=O)c1noc2ncnc(N3CCN(c4cccc(Cl)c4)CC3)c12 | inconclusive: 0.0794 µM [inhibitor, full curve, poor fit] | –
